# Results published in the supplement of paper PMC10126150.
# Sequences with one replicate were seen in a single cluster, so their values are uncertain.
# Tested on: ATP
# Experiment: switch fluorescence ratio, 500 uM ATP over buffer (Cy3 cluster intensity, sum of 5 cycles each) (fold (ratio)); higher = stronger signal-on switching upon ATP binding; sequences stand for … in TCGTCGGCAGCGTCAGATGTGTATAAGAGACAGTTTTTTTTTTTTTTTTTTTTTTTTT…TC
# Settings: aptamer strand: ATP DNA aptamer (quencher-CACCTGGGGGAGTATTGCGGAGGAAGG + anchor), 100 nM annealed; ATP concentration: 500 uM; one replicate
# Method in brief: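 Clusters carrying Cy3-labelled switching strands on a modified Illumina MiSeq flow-cell were annealed to 100 nM quencher-labelled ATP aptamer and imaged in selection buffer. They were imaged again after 15 min with 500 uM ATP at 22 °C, over five buffer/ATP cycles with NaOH stripping and re-annealing in between. For each cluster, the fluorescence ratio is the summed Cy3 intensity of the target cycles divided by that of the buffer cycles, averaged per switch-domain sequence. Clusters outside 100-1000 RFU were left out.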
# 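Further: ATP exposure 15 min at 22 °C before imaging.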
row,Sequence,switch fluorescence ratio
1,GTTACCGATT,0.97
2,GTTACCGGCC,1.37
3,GTTACCTCCC,1.69
4,GTTACCTTGG,1.01
5,GTTACGTGC,1.05
6,GTTACGTGCA,1.01
7,GTTACGTTAG,1.03
8,GTTACTGGGC,1.09
9,GTTAGACTAG,0.942
10,GTTAGAGATG,1.01
11,GTTAGATGGC,0.998
12,GTTAGATTAG,0.997
13,GTTAGCTTAT,1.03
14,GTTAGGGTT,1.01
15,GTTAGGTAAC,0.996
16,GTTATAACCA,1.03
17,GTTATAACTG,1.08
18,GTTATAGACT,0.998
19,GTTATCCCTA,1.01
20,GTTATGACTG,0.972
21,GTTATTTAT,0.977
22,GTTCAAAGAA,0.96

row,Sequence,switch fluorescence ratio
1,GTTCACCTCA,1.01
2,GTTCAGGTGT,2.53
3,GTTCATCTCG,1.02
4,GTTCCATTGT,1.02
5,GTTCCCTGCT,1
6,GTTCGAACCT,1.07
7,GTTCGAATGT,0.961
8,GTTCGACAGC,1.06
9,GTTCGGACAG,1
10,GTTCGGCCGG,1.01
11,GTTCGTGACG,0.982
12,GTTCTAAAGG,1.01
13,GTTCTAGCGT,0.95
14,GTTCTCATCG,1.01
15,GTTCTCTGTT,0.977
16,GTTCTGAGTA,1.02
17,GTTCTTGGTT,0.978
18,GTTGAACAAG,0.952
19,GTTGAACAGA,0.979
20,GTTGAAGTGC,1.03
21,GTTGAATGTT,1.02
22,GTTGACAAAA,1

row,Sequence,switch fluorescence ratio
1,GTTGACGGGA,1.01
2,GTTGACTCTG,1
3,GTTGAGGCGA,0.996
4,GTTGATAGGG,0.979
5,GTTGATCCGT,1.01
6,GTTGATCGCT,0.977
7,GTTGATGGTA,1.01
8,GTTGATTCGC,1
9,GTTGATTGAA,0.903
10,GTTGCACCAC,0.992
11,GTTGCCCATT,0.923
12,GTTGCGAGAG,1.01
13,GTTGCGATCA,1.03
14,GTTGCGCTGA,1.05
15,GTTGCGGATG,0.967
16,GTTGCGGCCG,0.897
17,GTTGCGTTGT,0.948
18,GTTGCTGGTT,0.957
19,GTTGCTGTAA,1
20,GTTGGAACGG,0.978
21,GTTGGAGGG,1
22,GTTGGATCGG,0.986

row,Sequence,switch fluorescence ratio
1,GTTGGATCTA,1.01
2,GTTGGCACA,0.987
3,GTTGGTAGGC,1.02
4,GTTGGTCGGA,0.973
5,GTTGGTTGAG,0.948
6,GTTGTAGGG,1
7,GTTGTCGCCG,1.01
8,GTTGTGAGTG,0.978
9,GTTGTTAGAT,1.02
10,GTTGTTCGAC,1.02
11,GTTGTTCTTG,0.978
12,GTTGTTTTAT,0.981
13,GTTTAAAGCT,1.17
14,GTTTAAATTG,0.985
15,GTTTAAGAGT,0.973
16,GTTTAAGTGT,0.961
17,GTTTACCGTA,1.1
18,GTTTAGCCTG,0.989
19,GTTTAGGCT,0.965
